From PubChem BioAssay AID686978 (National Center for Advancing Translational Sciences (NCATS), 2013)
About 64,000 (15%) of roughly 420,000 compounds were called active. Inconclusive results, whose numbers are uncertain, are shown with a selection of clear calls. Calls come from the whole dose curve; as a rule, active = well fitted inhibition curve with a large enough effect; inconclusive = small, poorly fitted or top-dose-only effect; inactive = flat fitted curve, though single readings scatter. Potencies of inconclusive entries are doubtful fits and often do not repeat.

assay: qHTS for Inhibitors of human tyrosyl-DNA phosphodiesterase 1 (TDP1): qHTS in cells in absence of CPT; details: DT40 Tdp1-/- hTDP1 cells, no CPT, ATP luminescence, 48 h; activity change, negative = growth inhibition: at 46.2 µM (top of the series) unless noted; note: nearly all actives have a fitted effect of over 55% in size
Procedure, shortened: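 Growth of hTDP1-complemented DT40 Tdp1-knockout cells is measured by ATP luminescence after at least 48 hr compound exposure at 37 °C, with DMSO substituting for the 20 nM CPT used in the parallel screen.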
% is set by controls: 0 for no effect and ±100 for the full control effect; potency is the fitted concentration of half-maximal effect; tags give direction and shape of the fitted curve.

Compound	activity change, negative = growth inhibition	Potency
Cc1ccc(N2C(=O)CC(NNC(=O)Cc3ccc(F)cc3)C2=O)cc1Cl (configuration not stated)	inactive: -23.1%	–
O=C(CSc1nnc(-c2cnccn2)n1Cc1ccco1)c1ccc(Cl)c(Cl)c1	inactive: -17.7%	–
Cc1sc2ccccc2[n+]1CCC(C)S(=O)(=O)[O-] (configuration not stated)	inactive: -0.883%	–
O=C(Nc1ccccc1)c1cc2ccc3ccccc3c2s1	inactive: -0.107%	–
O=C(/C=C1\OCc2ccccc21)OCc1ccccc1	–	inconclusive: 29.1 µM [inhibitor, single point]
COc1ccc(OC)c(CN2C(=O)c3ccccc3C2c2nnnn2C2CCCC2)c1 (configuration not stated)	–	active: 16.4 µM
CCC1Oc2ccc(C)cc2N(CC(=O)NCc2ccc(F)cc2)C1=O (configuration not stated)	–	inconclusive: 18.4 µM [inhibitor, single point]
Cc1c(C(=O)N(C)C2CCOC2)sc2ncnc(NCc3ccc4c(c3)OCO4)c12 (configuration not stated)	inactive: -26.9%	–
COc1ccc(C(C[N+](=O)[O-])c2c(C)[nH]c3ccccc23)cc1OC (configuration not stated)	–	inconclusive: 29.1 µM [inhibitor, single point]
COc1cc2c(cc1OC)CN(C(=O)c1ccc3[nH]c(C)c(C)c3c1)CC2	–	inconclusive: 16.4 µM [inhibitor, single point]
O=C(C1CCN(S(=O)(=O)c2cc(Cl)ccc2Cl)CC1)N1CCOCC1	inactive: -3.73%	–
Cc1noc(C)c1C1(O)CCCCCCCCCCC1	–	inconclusive: 5.8 µM [inhibitor, partial curve]
O=S(=O)(c1cccc2cnccc12)N1CCCNCC1	–	inconclusive: 20.6 µM [inhibitor, single point] [middle of 4 runs]
CCOc1ccc(C2c3c(-c4ccccc4O)n[nH]c3C(=O)N2Cc2cccnc2)cc1OC (configuration not stated)	inactive: 6.4%	–
CCOC(=O)C1CCCCN1S(=O)(=O)c1cc2c(cc1C)NC(=O)CO2 (configuration not stated)	–	inconclusive: 32.6 µM [inhibitor, single point]
CC(C)c1nn2c(=O)cc(COC(=O)c3cccc(NC(=O)c4ccccc4F)c3)nc2s1	inconclusive: -32.9% [inhibitor]	–
Oc1cccc(/C=N/N(Cc2ccccc2)c2ccccc2)c1	–	inconclusive: 23.1 µM [inhibitor, single point]
CC(C)SC1=NC(C)(C)C=C(/C=C/c2ccc(Cl)cc2Cl)N1	–	inconclusive: 29.1 µM [inhibitor, single point]
CCC[C@H]1COCCS(=O)(=O)N1Cc1ccc(F)cc1	inactive: -15.3%	–
Cc1ccc(OC(=O)CCc2c(C)nc3ncnn3c2C)cc1	inactive: -9.18%	–
O=C(NCCS(=O)(=O)N1CCN(c2ccccc2F)CC1)c1ccccc1C(F)(F)F	–	inconclusive: 13 µM [inhibitor, partial curve]
COc1cccc(CNC(=O)Cn2c(=O)cc(C(F)(F)F)c3c(C)nn(C)c32)c1OC	inactive: -19.5%	–
CCC1(c2ccccc2)NC(=S)N(c2ccc(C)c(C)c2)N1 (configuration not stated)	–	inconclusive: 18.4 µM [inhibitor, single point]
Cc1c(OCC(=O)NC2CCN(Cc3ccccc3)CC2)ccc2c3c(c(=O)oc12)CCC3	–	inconclusive: 29.1 µM [inhibitor, single point]

Compound	activity change, negative = growth inhibition	Potency
CCc1ccccc1NC(=O)CN(C)C(=O)CSc1nc2cc(Cl)ccc2s1	inactive: -25.8%	–
CCOC(=O)c1ccc2c(c1)sc1nc(-c3ccc(OCC)cc3)cn12	–	inconclusive: 23.1 µM [inhibitor, single point]
CCN(CC)S(=O)(=O)c1ccc(Nc2ccc(-c3ccc4c(c3)OCCO4)nn2)cc1	–	inconclusive: 5.17 µM [inhibitor, single point]
Cc1cc(C)cc(NC(=O)C2C3C=CC4(O3)C2C(=O)N(CCN2CCCCC2)C4C(=O)NC2CCCCC2)c1 (configuration not stated)	inactive: -22.7%	–
COc1ccc(-n2nc(C(=O)NCC(=O)NCc3ccccc3OC)c3ccccc3c2=O)cc1	–	inconclusive: 9.2 µM [inhibitor, partial curve]
Cc1ccc(S(=O)(=O)c2cn(CC(=O)Nc3ccccc3)c3ccc(F)cc3c2=O)cc1	–	inconclusive: 29.1 µM [inhibitor, single point]
O=C(N/N=C/C=C/c1cccc([N+](=O)[O-])c1)C(O)c1ccccc1 (configuration not stated)	–	inconclusive: 18.4 µM [inhibitor, single point]
O=C(c1cccc(C(F)(F)F)c1)C1CCCN(C(=O)c2cc(C3CC3)[nH]n2)C1 (configuration not stated)	–	inconclusive: 29.1 µM [inhibitor, single point]
COc1ccccc1Cc1nc(-c2ccc(C)cc2)no1	–	inconclusive: 29.1 µM [inhibitor, single point]
O=C(OCc1nnc(-c2ccccc2)o1)c1ccc([N+](=O)[O-])s1	inactive: 3.08%	–
CC(C)(C)OC(=O)N1CCN(C(=O)c2[nH]cnc2C(=O)Nc2ccc(Cl)cc2)CC1	–	inconclusive: 29.1 µM [inhibitor, single point]
CCN1C(=O)C(NC(C)=O)c2cc(Br)ccc21 (configuration not stated)	–	inconclusive: 20.6 µM [inhibitor, single point]
COc1c(C)cc(Br)cc1C(=O)Nc1cccc(NC(=O)c2ccco2)c1	–	inconclusive: 29.1 µM [inhibitor, single point]
NC(Cc1ccc(F)cc1)c1csc(Nc2nncc3ccccc23)n1 (configuration not stated)	–	active: 4.11 µM
O=C(N/N=C/c1ccoc1)c1ccc([N+](=O)[O-])cc1	inactive: 14.1%	–
CC(C)(C)C1CCc2c(C(=O)NNC(=O)CCC(=O)O)csc2C1 (configuration not stated)	inactive: -6.18%	–
CCOc1ccc(-c2nnn(CC(=O)c3ccc4c(c3)OCCO4)n2)cc1OCC	–	active: 18.4 µM
O=C(Nc1cccn(Cc2c(Cl)cccc2Cl)c1=O)C1CC1	–	inconclusive: 29.1 µM [inhibitor, single point]
COc1ccc(OCC(=O)O/N=C(\N)c2ccc(OC)cc2)cc1	–	inconclusive: 32.6 µM [inhibitor, single point]
CC(/C=N\NC(=O)CN1CCN(S(=O)(=O)c2ccc(C)cc2)CC1)=C\c1ccccc1	–	inconclusive: 23.1 µM [inhibitor, single point]
CC1CCCCCCC1OC(=O)c1ccccc1C(=O)O (configuration not stated)	inactive: -22.5%	–
OC(CNCc1ccccc1)COCc1ccc(Cl)cc1 (configuration not stated)	inactive: -4.78%	–
CCOc1ccc(S(=O)(=O)Nc2ccc(C(=O)NCC(c3ccccc3)N(C)C)cc2)cc1 (configuration not stated)	inactive: 2.72%	–
